# Assay results from the supplement of paper PMC9151546.
# Single values are uncertain, as repeats are few or missing.
# Legend:
# [1] = system: CHO-K1; assay: relative survival (nuclei to bead ratio vs DMSO control) (% of vehicle control); higher = more surviving cells
# Protocol: (§1)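 Flow-cytometric in vitro micronucleus assay (Litron MicroFlow) in CHO-K1 cells in 96-well plates, 19 concentrations (4.5-200 µM, n=1 per concentration). Without S9, cells were exposed for 24 h and sampled at 48 h. With Aroclor 1254-induced rat liver S9, cells were exposed for 3-4 h and sampled at 27-28 h. Read-outs are %MN and %hypodiploid nuclei relative to nucleated events, and relative survival as the nuclei-to-bead ratio versus the 1% DMSO vehicle control (x100).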
# [2] = system: CHO-K1; assay: micronucleus frequency (% of nucleated events); higher = more micronuclei (genotoxic)
# [3] = system: CHO-K1; assay: hypodiploid nuclei frequency (% of nucleated events); higher = more hypodiploid events (aneugenic)
# Protocol: as §1
# [4] = concentration: 4.5 (µM), S9 metabolic activation: with S9, exposure time: 3-4 hours
# [5] = concentration: 4.5 (µM), S9 metabolic activation: without S9, exposure time: 24 hours
# [6] = concentration: 5.63 (µM), S9 metabolic activation: with S9, exposure time: 3-4 hours
# [7] = concentration: 5.63 (µM), S9 metabolic activation: without S9, exposure time: 24 hours
# [8] = concentration: 7.04 (µM), S9 metabolic activation: with S9, exposure time: 3-4 hours
# [9] = concentration: 7.04 (µM), S9 metabolic activation: without S9, exposure time: 24 hours
# [10] = concentration: 8.8 (µM), S9 metabolic activation: with S9, exposure time: 3-4 hours
# [11] = concentration: 8.8 (µM), S9 metabolic activation: without S9, exposure time: 24 hours
# [12] = concentration: 11 (µM), S9 metabolic activation: with S9, exposure time: 3-4 hours
# [13] = concentration: 11 (µM), S9 metabolic activation: without S9, exposure time: 24 hours
# [14] = concentration: 13.7 (µM), S9 metabolic activation: with S9, exposure time: 3-4 hours
# [15] = concentration: 13.7 (µM), S9 metabolic activation: without S9, exposure time: 24 hours
# [16] = concentration: 17.2 (µM), S9 metabolic activation: with S9, exposure time: 3-4 hours
# [17] = concentration: 17.2 (µM), S9 metabolic activation: without S9, exposure time: 24 hours
# [18] = concentration: 21.5 (µM), S9 metabolic activation: with S9, exposure time: 3-4 hours
# [19] = concentration: 21.5 (µM), S9 metabolic activation: without S9, exposure time: 24 hours
# [20] = concentration: 26.8 (µM), S9 metabolic activation: with S9, exposure time: 3-4 hours
# [21] = concentration: 26.8 (µM), S9 metabolic activation: without S9, exposure time: 24 hours
# [22] = concentration: 33.6 (µM), S9 metabolic activation: with S9, exposure time: 3-4 hours
# [23] = concentration: 33.6 (µM), S9 metabolic activation: without S9, exposure time: 24 hours
# [24] = concentration: 41.9 (µM), S9 metabolic activation: with S9, exposure time: 3-4 hours
# [25] = concentration: 41.9 (µM), S9 metabolic activation: without S9, exposure time: 24 hours
# [26] = concentration: 52.4 (µM), S9 metabolic activation: with S9, exposure time: 3-4 hours
# [27] = concentration: 52.4 (µM), S9 metabolic activation: without S9, exposure time: 24 hours
# [28] = concentration: 65.5 (µM), S9 metabolic activation: with S9, exposure time: 3-4 hours
# [29] = concentration: 65.5 (µM), S9 metabolic activation: without S9, exposure time: 24 hours
# [30] = concentration: 81.9 (µM), S9 metabolic activation: with S9, exposure time: 3-4 hours
# [31] = concentration: 81.9 (µM), S9 metabolic activation: without S9, exposure time: 24 hours
# [32] = concentration: 102 (µM), S9 metabolic activation: with S9, exposure time: 3-4 hours
# [33] = concentration: 102 (µM), S9 metabolic activation: without S9, exposure time: 24 hours
# [34] = concentration: 128 (µM), S9 metabolic activation: with S9, exposure time: 3-4 hours
# [35] = concentration: 128 (µM), S9 metabolic activation: without S9, exposure time: 24 hours
# [36] = concentration: 160 (µM), S9 metabolic activation: with S9, exposure time: 3-4 hours
# [37] = concentration: 160 (µM), S9 metabolic activation: without S9, exposure time: 24 hours
# [38] = concentration: 200 (µM), S9 metabolic activation: with S9, exposure time: 3-4 hours
# [39] = concentration: 200 (µM), S9 metabolic activation: without S9, exposure time: 24 hours
# 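For hypodiploid nuclei frequency (% of nucleated events) in this document: hypodiploid nuclei gated on a flow cytometer with 488 nm excitation after SYTOX Green staining, cultures at 37 °C, positive controls vinblastine without S9 and cyclophosphamide with S9.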
# 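For micronucleus frequency (% of nucleated events) in this document: cells lysed with nuclei stained by SYTOX Green, then micronucleus-gated events counted against nucleated events by flow cytometry with 488 nm excitation.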
# 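For relative survival (nuclei to bead ratio vs DMSO control) in this document: Lysed-cell nuclei stained with SYTOX Green and counted against counting beads by flow cytometry at 488 nm excitation, with vinblastine (no S9) and cyclophosphamide (plus S9) as positive controls.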
smiles,measurement,setting,value
CCNc1ccccc1 [N-Ethylaniline],relative survival,[1]; [4],94
same,relative survival,[1]; [5],108
same,relative survival,[1]; [6],96.8
same,relative survival,[1]; [7],111
same,relative survival,[1]; [8],104
same,relative survival,[1]; [9],101
same,relative survival,[1]; [10],98.4
same,relative survival,[1]; [11],113
same,relative survival,[1]; [12],91.7
same,relative survival,[1]; [13],117
same,relative survival,[1]; [14],114
same,relative survival,[1]; [15],106
same,relative survival,[1]; [16],93
same,relative survival,[1]; [17],97.5
same,relative survival,[1]; [18],103
same,relative survival,[1]; [19],91.7
same,relative survival,[1]; [20],74.8
same,relative survival,[1]; [21],90.2
same,relative survival,[1]; [22],79.2
same,relative survival,[1]; [23],88.3
same,relative survival,[1]; [24],85.1
same,relative survival,[1]; [25],99.8
same,relative survival,[1]; [26],96.3
same,relative survival,[1]; [27],95.1
same,relative survival,[1]; [28],79.8
same,relative survival,[1]; [29],88.6
same,relative survival,[1]; [30],84.7
same,relative survival,[1]; [31],80.2
same,relative survival,[1]; [32],92.5
same,relative survival,[1]; [33],89.2
same,relative survival,[1]; [34],93.4
same,relative survival,[1]; [35],84.3
same,relative survival,[1]; [36],81.3
same,relative survival,[1]; [37],96.1
same,relative survival,[1]; [38],103
same,relative survival,[1]; [39],104
same,micronucleus frequency,[2]; [4],1.16%
same,micronucleus frequency,[2]; [5],1.5%
same,micronucleus frequency,[2]; [6],0.68%
same,micronucleus frequency,[2]; [7],1.6%
same,micronucleus frequency,[2]; [8],2.06%
same,micronucleus frequency,[2]; [9],1.36%
same,micronucleus frequency,[2]; [10],1.5%
same,micronucleus frequency,[2]; [11],1.38%
same,micronucleus frequency,[2]; [12],1.72%
same,micronucleus frequency,[2]; [13],1.26%
same,micronucleus frequency,[2]; [14],1.86%
same,micronucleus frequency,[2]; [15],1.84%
same,micronucleus frequency,[2]; [16],1.76%
same,micronucleus frequency,[2]; [17],1.72%
same,micronucleus frequency,[2]; [18],2.26%
same,micronucleus frequency,[2]; [19],1.54%
same,micronucleus frequency,[2]; [20],0.74%
same,micronucleus frequency,[2]; [21],1.14%
same,micronucleus frequency,[2]; [22],0.9%
same,micronucleus frequency,[2]; [23],1.24%
same,micronucleus frequency,[2]; [24],1.02%
same,micronucleus frequency,[2]; [25],2.3%
same,micronucleus frequency,[2]; [26],1.3%
same,micronucleus frequency,[2]; [27],1.5%
same,micronucleus frequency,[2]; [28],1.98%
same,micronucleus frequency,[2]; [29],2%
same,micronucleus frequency,[2]; [30],1.72%
same,micronucleus frequency,[2]; [31],2.06%
same,micronucleus frequency,[2]; [32],1.6%
same,micronucleus frequency,[2]; [33],2.8%
same,micronucleus frequency,[2]; [34],1.74%
same,micronucleus frequency,[2]; [35],1.94%
same,micronucleus frequency,[2]; [36],2.06%
same,micronucleus frequency,[2]; [37],3.7%
same,micronucleus frequency,[2]; [38],2.6%
same,micronucleus frequency,[2]; [39],4.26%
same,hypodiploid nuclei frequency,[3]; [4],0.28%
same,hypodiploid nuclei frequency,[3]; [5],0.5%
same,hypodiploid nuclei frequency,[3]; [6],0.26%
same,hypodiploid nuclei frequency,[3]; [7],0.32%
same,hypodiploid nuclei frequency,[3]; [8],0.4%
same,hypodiploid nuclei frequency,[3]; [9],0.32%
same,hypodiploid nuclei frequency,[3]; [10],0.24%
same,hypodiploid nuclei frequency,[3]; [11],0.36%
same,hypodiploid nuclei frequency,[3]; [12],0.3%
same,hypodiploid nuclei frequency,[3]; [13],0.42%
same,hypodiploid nuclei frequency,[3]; [14],0.28%
same,hypodiploid nuclei frequency,[3]; [15],0.42%
same,hypodiploid nuclei frequency,[3]; [16],0.28%
same,hypodiploid nuclei frequency,[3]; [17],0.3%
same,hypodiploid nuclei frequency,[3]; [18],0.34%
same,hypodiploid nuclei frequency,[3]; [19],0.64%
same,hypodiploid nuclei frequency,[3]; [20],0.18%
same,hypodiploid nuclei frequency,[3]; [21],0.66%
same,hypodiploid nuclei frequency,[3]; [22],0.06%
same,hypodiploid nuclei frequency,[3]; [23],0.56%
same,hypodiploid nuclei frequency,[3]; [24],0.14%
same,hypodiploid nuclei frequency,[3]; [25],0.76%
same,hypodiploid nuclei frequency,[3]; [26],0.2%
same,hypodiploid nuclei frequency,[3]; [27],0.86%
same,hypodiploid nuclei frequency,[3]; [28],0.34%
same,hypodiploid nuclei frequency,[3]; [29],0.78%
same,hypodiploid nuclei frequency,[3]; [30],0.12%
same,hypodiploid nuclei frequency,[3]; [31],0.68%
same,hypodiploid nuclei frequency,[3]; [32],0.34%
same,hypodiploid nuclei frequency,[3]; [33],0.76%
same,hypodiploid nuclei frequency,[3]; [34],0.2%
same,hypodiploid nuclei frequency,[3]; [35],1.04%
same,hypodiploid nuclei frequency,[3]; [36],0.34%
same,hypodiploid nuclei frequency,[3]; [37],1.04%
same,hypodiploid nuclei frequency,[3]; [38],0.22%
same,hypodiploid nuclei frequency,[3]; [39],1.16%
